Among all 150,000 compounds or so, about 540 (0.36%) showed an effect of 50% or more. Some of the results follow.
Tested on: Plasmodium falciparum
Assay: Primary screen in NF54 nanoGlo assay, in single point, at 2uM, 72h; a lower Z score goes with more inhibition
Type: functional, Erythrocyte
Details: timepoint 72 hour

**Q.** Which “% Inhibition” value does the source give for CC(C)c1cc(N(C)Cc2cccnc2)nc(N)n1 here?
**A.** -4%

**Q.** And the Z score?
**A.** 0.41

**Q.** What does the source list for Cn1ncc2c1CCC[C@@H]2Nc1nccc(C(F)(F)F)n1?
**A.** % Inhibition: 1%; Z score: -0.13

**Q.** What does the source list for C[C@H](NC(=O)c1ccc(CN2C(=O)CNC2=O)cc1)c1ccccc1?
**A.** % Inhibition: -15%; Z score: 2.79

**Q.** For Cc1cnc(C(=O)Nc2ccnn2Cc2cccs2)cn1, which “% Inhibition” value is on record?
**A.** -3%

**Q.** What about the Z score of the same compound?
**A.** 0.45

**Q.** For Cc1cccc(NC(=O)N2CCCC[C@H]2c2nn(C)c3c2COCC3)c1C, which “% Inhibition” value is on record?
**A.** -10%

**Q.** What about the Z score of the same compound?
**A.** 0.95

**Q.** With CN(C[C@H]1COc2ccccc2O1)c1cc(C2CCNCC2)ncn1 as the compound, how does the “% Inhibition” value read?
**A.** 6%

**Q.** And the Z score?
**A.** -0.96

**Q.** NC(=O)NCc1ccc(NC(=O)[C@H](Oc2ccccc2)c2ccccc2)cc1 was tested. Which “% Inhibition” value did it give?
**A.** 11%

**Q.** What about the Z score of the same compound?
**A.** -1.5

**Q.** Which results are given for CN(C(=O)c1ccc(C#N)cn1)c1ccc(Cl)cn1?
**A.** % Inhibition: -8%; Z score: 1.55

**Q.** Which results are given for COCCOCc1cccc(-c2n[nH]c3ncnc(N)c23)c1?
**A.** % Inhibition: 2%; Z score: -0.22

**Q.** Which “% Inhibition” value does the source give for COc1cccc(CC(=O)N2CCc3nc(N4CCCCC4)nc(N(C)C(C)C)c3C2)c1 here?
**A.** -2%

**Q.** What about the Z score of the same compound?
**A.** 0.36

**Q.** Which results are given for CC(=O)c1cccc(NC(=O)Cn2cc(C(=O)c3ccncc3)c(=O)c3cc(Br)ccc32)c1?
**A.** % Inhibition: 6%; Z score: -0.95

**Q.** How did the “% Inhibition” value turn out when CCn1nc(C(=O)Nc2cccc(OC)c2)cc1-c1cc(C)sc1C was run?
**A.** -2%

**Q.** And the Z score?
**A.** 0.36

**Q.** Which results are given for Cc1cc([C@@H]2CCCCCN2S(=O)(=O)c2ccc(F)cc2)on1?
**A.** % Inhibition: 5%; Z score: -0.72

**Q.** How did the “% Inhibition” value turn out when O=C(c1cnccn1)N1CC[C@H](c2nc(-c3ccncc3)no2)C1 was run?
**A.** -13%

**Q.** And the Z score?
**A.** 1.51

**Q.** With CC[C@H](C)N1CCC(=O)N(CC(=O)c2[nH]c(C)c(C(C)=O)c2C)C1=O as the compound, how does the “% Inhibition” value read?
**A.** 6%

**Q.** What about the Z score of the same compound?
**A.** -0.85

**Q.** How did the “% Inhibition” value turn out when COCC(=O)N(CCn1ccnc1C)C1CCN(C(=O)C2(C)CCCCC2)CC1 was run?
**A.** 0%

**Q.** And the Z score?
**A.** 0.06

**Q.** How did the “% Inhibition” value turn out when Cc1ccc(NC(=O)c2cc(N3C(=O)C4CC=CCC4C3=O)ccc2N2CCCCC2)cc1 (stereo not given) was run?
**A.** -16%

**Q.** And the Z score?
**A.** 2.17

**Q.** With Oc1ccc(-c2cc(O)cc(CC[C@H]3CCCCN3)c2)nc1 as the compound, how does the “% Inhibition” value read?
**A.** -14%

**Q.** What about the Z score of the same compound?
**A.** 1.77

**Q.** Which results are given for COc1cc(C)sc1C(=O)NCCN1CCCCC1?
**A.** % Inhibition: -9%; Z score: 1.86

**Q.** For CCOC1CC1C(=O)N1CCCC(Cn2cncn2)C1 (stereo not given), which “% Inhibition” value is on record?
**A.** -8%

**Q.** And the Z score?
**A.** 1.17

**Q.** Which results are given for Cc1cc2nc[nH]c2c(NC(=O)CCc2cc3n(n2)CCNC3)c1C?
**A.** % Inhibition: -7%; Z score: 1.44

**Q.** Which “% Inhibition” value does the source give for O=C(c1ccc2nccn2c1)N1CCN(c2ccc(F)cc2)CC1 here?
**A.** -11%

**Q.** And the Z score?
**A.** 1.47

**Q.** How did the “% Inhibition” value turn out when CN(CC1(c2ccccc2)CC1)C(=O)NCc1ccc(C(N)=O)o1 was run?
**A.** -6%

**Q.** What about the Z score of the same compound?
**A.** 0.87

**Q.** Which results are given for O=C(NCCC1=CCCCC1)c1cc(OCc2ccccc2)no1?
**A.** % Inhibition: -12%; Z score: 2.3

**Q.** With Cc1n[nH]c(C)c1CN1CCC=C(F)C1 as the compound, how does the “% Inhibition” value read?
**A.** -11%

**Q.** And the Z score?
**A.** 2.21

**Q.** What does the source list for COc1cn(CC(=O)NCCc2ccccc2)c(CN2CCOCC2)cc1=O?
**A.** % Inhibition: -5%; Z score: 0.94

**Q.** For O=C(CNC(=O)NCc1ccco1)NCCc1cc2ccccc2o1, which “% Inhibition” value is on record?
**A.** 2%

**Q.** What about the Z score of the same compound?
**A.** -0.17

**Q.** Which results are given for Cc1cccc(CNC(=O)c2c(C)sc3ncnc(N4CCCC4)c23)c1?
**A.** % Inhibition: -11%; Z score: 1.7

**Q.** Which results are given for CC1c2cccn2CCN1CC(=O)NC(C)(C#N)C1CC1 (stereo not given)?
**A.** % Inhibition: -8%; Z score: 1.03

**Q.** Which “% Inhibition” value does the source give for COCc1ccnc(NC(=O)c2cncc(N3CCOCC3)c2)c1 here?
**A.** -7%

**Q.** What about the Z score of the same compound?
**A.** 1.42

**Q.** O=C(c1nc(C2CC2)no1)N1CC(c2nc(-c3ccccc3)no2)C1 was tested. Which “% Inhibition” value did it give?
**A.** -21%

**Q.** And the Z score?
**A.** 2.32

**Q.** Which results are given for NC(=NCc1cccs1)C1CCCC1?
**A.** % Inhibition: -4%; Z score: 0.52

**Q.** For CCCc1nnsc1C(=O)N[C@H]1CCC(=O)N(C)C1, which “% Inhibition” value is on record?
**A.** -1%

**Q.** What about the Z score of the same compound?
**A.** 0.17

**Q.** Cc1c(CN(C)Cc2cnn(C)c2C2CC2)cnn1C was tested. Which “% Inhibition” value did it give?
**A.** -2%

**Q.** And the Z score?
**A.** 0.3

**Q.** Cc1csc(-c2ccc(C(=O)NCCn3ccnc3)c(N3CCCCC3)n2)c1 was tested. Which “% Inhibition” value did it give?
**A.** -1%

**Q.** What about the Z score of the same compound?
**A.** 0.13

**Q.** What does the source list for COCCN1CC2(CCC1=O)CCN(C(=O)Nc1ccccc1OC)CC2?
**A.** % Inhibition: 9%; Z score: -1.63

**Q.** Which results are given for Cc1nc(CN2CC[C@H](NC(=O)c3scnc3C)[C@@H](O)C2)cs1?
**A.** % Inhibition: -4%; Z score: 0.69

**Q.** How did the “% Inhibition” value turn out when COc1ccc(Oc2ccc(Cl)cc2NC(=O)N2CC3(C2)CC3(F)F)cc1 was run?
**A.** 9%

**Q.** And the Z score?
**A.** -1.56

**Q.** Cc1nc(O)c(Br)cc1C(=O)NC1CC(F)(F)C1 was tested. Which “% Inhibition” value did it give?
**A.** -6%

**Q.** What about the Z score of the same compound?
**A.** 0.73

**Q.** For CCc1noc(NC(C)=O)c1-c1ccc(OC)c(S(=O)(=O)NC2CCCCC2)c1, which “% Inhibition” value is on record?
**A.** -7%

**Q.** And the Z score?
**A.** 1.07

**Q.** With O=C(Nc1nc2ccc(S(=O)(=O)N3CCCCC3)cc2s1)C1CC2C=CC1C2 (stereo not given) as the compound, how does the “% Inhibition” value read?
**A.** -18%

**Q.** What about the Z score of the same compound?
**A.** 2.44

**Q.** Which results are given for O=C(Nc1sc2c(c1C(=O)N1CCCCC1)CCCC2)[C@@H]1CCCO1?
**A.** % Inhibition: -7%; Z score: 1.23

**Q.** COCCC(=O)N1CC(N(Cc2ccncc2)CC2CC2)C1 was tested. Which “% Inhibition” value did it give?
**A.** -5%

**Q.** And the Z score?
**A.** 0.98

**Q.** With CN(Cc1ccnc2ccccc12)C(=O)c1cccc([C@H]2CCCNC2)c1 as the compound, how does the “% Inhibition” value read?
**A.** 6%

**Q.** And the Z score?
**A.** -1.12

**Q.** With CCCN(CCC)C(=O)c1csc(CN(CCC(c2ccccc2)c2ccccc2)Cc2ccc(Cl)cc2)n1 as the compound, how does the “% Inhibition” value read?
**A.** -10%

**Q.** And the Z score?
**A.** 1.41

**Q.** With CN[C@H]1CCCN(C(=O)CN2CCNCC2=O)C1 as the compound, how does the “% Inhibition” value read?
**A.** -7%

**Q.** And the Z score?
**A.** 1.2

**Q.** What does the source list for C[C@@H](C1CCN(c2noc(-c3ccccc3)n2)CC1)N1CCN(C)CC1?
**A.** % Inhibition: 1%; Z score: -0.26

**Q.** How did the “% Inhibition” value turn out when O=C(Nc1ccsc1)N1CCN(Cc2ccccc2)CC1 was run?
**A.** -6%

**Q.** And the Z score?
**A.** 0.83

**Q.** Which “% Inhibition” value does the source give for Cc1ccccc1-c1ncc(-c2nccn2CCc2n[nH]c(=O)[nH]2)s1 here?
**A.** -12%

**Q.** What about the Z score of the same compound?
**A.** 1.35

**Q.** C[C@H]1CCCN1C(=O)c1ccc(S(=O)(=O)NCc2ccncc2)cc1 was tested. Which “% Inhibition” value did it give?
**A.** 6%

**Q.** What about the Z score of the same compound?
**A.** -0.92

**Q.** Which results are given for Cc1cccc(C)c1OCC(=O)Nc1ccc(-n2cnnn2)cc1?
**A.** % Inhibition: -6%; Z score: 0.95

**Q.** C[C@@H](C(=O)OC(C)(C)C)c1nc(-c2nccc3ccccc23)no1 was tested. Which “% Inhibition” value did it give?
**A.** -8%

**Q.** What about the Z score of the same compound?
**A.** 1.02

**Q.** For CC(C)(C)OC(=O)N[C@H]1CCN(Cc2ccc(C#N)cc2)C1, which “% Inhibition” value is on record?
**A.** -13%

**Q.** What about the Z score of the same compound?
**A.** 1.81

**Q.** With CCOC(=O)CNC(=O)NCCn1nnc2cc(C(=O)NC3CCCC3)ccc21 as the compound, how does the “% Inhibition” value read?
**A.** -3%

**Q.** What about the Z score of the same compound?
**A.** 0.44

**Q.** Which results are given for C[C@H](Oc1ccc(Cl)cc1C(N)=O)c1noc(-c2ccccc2)n1?
**A.** % Inhibition: -16%; Z score: 2.14
